# Assay results as given in the supplement of paper PMC10037445.
# Whole data set: some 2,900 compounds, median “NF-kB SEAP reporter activity, fold change vs agonist alone” near 0.99, cut for the highest 2% near 2.6. Some of the results follow.
# Experiments:
# RAW-Dual [1] = assay: NF-kB SEAP reporter activity, fold change vs agonist alone; cytotoxicity flag (confluency mask): not cytotoxic; higher = enhanced NF-kB activity
# Procedure, shortened: (§1)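 Library stock was pin-tooled at 50 nL into 384-well plates of RAW-Dual macrophages (50,000 cells/well, DMEM), followed 1 h later by a PRR agonist, and the cells were kept at 37 °C, 5% CO2. Supernatant collected after 20 hours was read for IRF by QuantiLuc luminescence and for NF-κB by QuantiBlue absorbance at 620 nm. Reporter activity is fold change over agonist-alone wells, and a well counted as cytotoxic when its IncuCyte confluency was below 70% of agonist controls in both mask sets.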
# RAW-Dual [2] = assay: NF-kB SEAP reporter activity, fold change vs agonist alone; higher = enhanced NF-kB activity
# Procedure, shortened: as §1
# RAW-Dual [3] = assay: NF-kB SEAP reporter activity, fold change vs agonist alone; cytotoxicity flag (confluency mask): cytotoxic (confluency <70% of control); higher = enhanced NF-kB activity
# Procedure, shortened: as §1
# [4] = agonist: ODN 1826 (TLR9) 0.5 ug/mL
# [5] = agonist: Pam2CSK4 (TLR2/6) 0.1 ug/mL
# [6] = agonist: Pam3CSK4 (TLR2/1) 0.1 ug/mL
# [7] = library stock concentration (final ~1000-fold dilution): 10 mM, cytotoxicity flag (confluency mask): not cytotoxic, agonist: Imiquimod (TLR7) […]
# [8] = library stock concentration (final ~1000-fold dilution): 10 mM, cytotoxicity flag (confluency mask): not cytotoxic, agonist: MPLA (TLR4) […]
# [9] = library stock concentration (final ~1000-fold dilution): 10 mM, cytotoxicity flag (confluency mask): cytotoxic (confluency <70% of control), agonist: Imiquimod (TLR7) […]
# [10] = library stock concentration (final ~1000-fold dilution): 10 mM, cytotoxicity flag (confluency mask): cytotoxic (confluency <70% of control), agonist: MPLA (TLR4) […]
smiles,measurement,setting,value
C=CC(=O)Nc1cc2c(Nc3ccc(F)c(Cl)c3)ncnc2cc1OCCCN1CCOCC1 (library stock concentration (final ~1000-fold dilution): 2 mM),NF-kB SEAP reporter activity,RAW-Dual [1]; agonist: LPS (TLR4) 0.1 ug/mL,1.53
same,NF-kB SEAP reporter activity,RAW-Dual [1]; [4],1.05
same,NF-kB SEAP reporter activity,RAW-Dual [1]; [5],1.34
same,NF-kB SEAP reporter activity,RAW-Dual [1]; [6],1.17
CNCc1ccc(-c2cc(-c3nc(-c4ccc(S(=O)(=O)C(C)C)cc4)cnc3N)on2)cc1,NF-kB SEAP reporter activity,RAW-Dual [2]; [7],0.858
same,NF-kB SEAP reporter activity,RAW-Dual [2]; [8],0.98
CNCc1ccc(-c2cc(-c3nc(-c4ccc(S(=O)(=O)C(C)C)cc4)cnc3N)on2)cc1 (library stock concentration (final ~1000-fold dilution): 10 mM),NF-kB SEAP reporter activity,RAW-Dual [1]; agonist: LPS (TLR4) 0.1 ug/mL,1.06
same,NF-kB SEAP reporter activity,RAW-Dual [1]; [4],0.943
same,NF-kB SEAP reporter activity,RAW-Dual [1]; [5],0.871
same,NF-kB SEAP reporter activity,RAW-Dual [1]; [6],1.05
COC(=O)Nc1nc2ccc(C(=O)c3cccs3)cc2[nH]1 (library stock concentration (final ~1000-fold dilution): 10 mM),NF-kB SEAP reporter activity,RAW-Dual [3]; [4],3.14
COC(=O)Nc1nc2ccc(C(=O)c3cccs3)cc2[nH]1,NF-kB SEAP reporter activity,RAW-Dual [2]; [9],2.68
Nc1ncc2[nH]cnc2n1 (library stock concentration (final ~1000-fold dilution): 1000 mM),NF-kB SEAP reporter activity,RAW-Dual [1]; agonist: LPS (TLR4) 0.1 ug/mL,0.689
same,NF-kB SEAP reporter activity,RAW-Dual [1]; [4],1.03
same,NF-kB SEAP reporter activity,RAW-Dual [1]; [5],0.992
same,NF-kB SEAP reporter activity,RAW-Dual [1]; [6],0.971
Nc1ncc2[nH]cnc2n1,NF-kB SEAP reporter activity,"RAW-Dual [2]; library stock concentration (final ~1000-fold dilution): 1000 mM, cytotoxicity flag (confluency mask): not cytotoxic, agonist: Imiquimod (TLR7) […]",0.724
same,NF-kB SEAP reporter activity,"RAW-Dual [2]; library stock concentration (final ~1000-fold dilution): 1000 mM, cytotoxicity flag (confluency mask): not cytotoxic, agonist: MPLA (TLR4) […]",0.746
N#C/C(=C/c1ccc(-c2cc(Cl)ccc2Cl)o1)C(=O)Nc1cccc2ncccc12 (library stock concentration (final ~1000-fold dilution): 10 mM),NF-kB SEAP reporter activity,RAW-Dual [3]; agonist: LPS (TLR4) 0.1 ug/mL,1.1
same,NF-kB SEAP reporter activity,RAW-Dual [3]; [4],0.888
same,NF-kB SEAP reporter activity,RAW-Dual [3]; [5],0.905
same,NF-kB SEAP reporter activity,RAW-Dual [3]; [6],0.992
N#C/C(=C/c1ccc(-c2cc(Cl)ccc2Cl)o1)C(=O)Nc1cccc2ncccc12,NF-kB SEAP reporter activity,RAW-Dual [2]; [9],0.819
same,NF-kB SEAP reporter activity,RAW-Dual [2]; [10],1.31
CCCC(=O)OC[C@@H](OC(=O)CCC)[C@@H](OC(=O)CCC)[C@H](Cn1c2nc(=O)[nH]c(=O)c-2nc2cc(C)c(C)cc21)OC(=O)CCC,NF-kB SEAP reporter activity,RAW-Dual [2]; [7],1.26
same,NF-kB SEAP reporter activity,RAW-Dual [2]; [8],1.41
CCCC(=O)OC[C@@H](OC(=O)CCC)[C@@H](OC(=O)CCC)[C@H](Cn1c2nc(=O)[nH]c(=O)c-2nc2cc(C)c(C)cc21)OC(=O)CCC (library stock concentration (final ~1000-fold dilution): 10 mM),NF-kB SEAP reporter activity,RAW-Dual [1]; agonist: LPS (TLR4) 0.1 ug/mL,1.46
same,NF-kB SEAP reporter activity,RAW-Dual [1]; [4],1.13
same,NF-kB SEAP reporter activity,RAW-Dual [1]; [5],1.12
same,NF-kB SEAP reporter activity,RAW-Dual [1]; [6],1.4
CCCn1c(NC(=O)c2cccc(C(N)=O)c2)nc2ccccc21 (library stock concentration (final ~1000-fold dilution): 10 mM),NF-kB SEAP reporter activity,RAW-Dual [1]; agonist: LPS (TLR4) 0.1 ug/mL,0.482
same,NF-kB SEAP reporter activity,RAW-Dual [1]; [4],0.333
same,NF-kB SEAP reporter activity,RAW-Dual [1]; [5],0.143
same,NF-kB SEAP reporter activity,RAW-Dual [1]; [6],0.205
CCCn1c(NC(=O)c2cccc(C(N)=O)c2)nc2ccccc21,NF-kB SEAP reporter activity,RAW-Dual [2]; [7],0.36
same,NF-kB SEAP reporter activity,RAW-Dual [2]; [8],0.54
O=C(CCc1ccc(O)cc1)c1c(O)cc(O)cc1O,NF-kB SEAP reporter activity,RAW-Dual [2]; [7],1.18
same,NF-kB SEAP reporter activity,RAW-Dual [2]; [8],1.12
O=C(CCc1ccc(O)cc1)c1c(O)cc(O)cc1O (library stock concentration (final ~1000-fold dilution): 10 mM),NF-kB SEAP reporter activity,RAW-Dual [1]; agonist: LPS (TLR4) 0.1 ug/mL,1.09
same,NF-kB SEAP reporter activity,RAW-Dual [1]; [4],1.21
same,NF-kB SEAP reporter activity,RAW-Dual [1]; [5],1.15
same,NF-kB SEAP reporter activity,RAW-Dual [1]; [6],1.12
Cc1cn(CCN2CCN(c3ccccc3-c3cc(C#N)cc(C(=O)NCCCN4CCCC4)c3)CC2)c2ccccc12,NF-kB SEAP reporter activity,RAW-Dual [2]; [9],0.283
same,NF-kB SEAP reporter activity,RAW-Dual [2]; [10],0.248
Cc1cn(CCN2CCN(c3ccccc3-c3cc(C#N)cc(C(=O)NCCCN4CCCC4)c3)CC2)c2ccccc12 (library stock concentration (final ~1000-fold dilution): 10 mM),NF-kB SEAP reporter activity,RAW-Dual [3]; agonist: LPS (TLR4) 0.1 ug/mL,0.181
same,NF-kB SEAP reporter activity,RAW-Dual [3]; [4],0.229
same,NF-kB SEAP reporter activity,RAW-Dual [3]; [5],0.0813
same,NF-kB SEAP reporter activity,RAW-Dual [3]; [6],0.157
N#Cc1cccc(-c2c[nH]c3ncnc(N4CCOCC4)c23)c1,NF-kB SEAP reporter activity,RAW-Dual [2]; [7],1.01
same,NF-kB SEAP reporter activity,RAW-Dual [2]; [8],0.873
N#Cc1cccc(-c2c[nH]c3ncnc(N4CCOCC4)c23)c1 (library stock concentration (final ~1000-fold dilution): 10 mM),NF-kB SEAP reporter activity,RAW-Dual [1]; agonist: LPS (TLR4) 0.1 ug/mL,0.963
same,NF-kB SEAP reporter activity,RAW-Dual [1]; [4],0.792
same,NF-kB SEAP reporter activity,RAW-Dual [1]; [5],0.588
same,NF-kB SEAP reporter activity,RAW-Dual [1]; [6],0.962
